Consider 40 sequences from article PMC12820563, “FoxP3 forms a head-to-head dimer in vivo and stabilizes its multimerization on adjacent microsatellites”.

Some of the results follow.

The target in the assay is T1, MBP-FoxP1dN (Mus musculus, UniProt P58462 326-579).
T1 sequence: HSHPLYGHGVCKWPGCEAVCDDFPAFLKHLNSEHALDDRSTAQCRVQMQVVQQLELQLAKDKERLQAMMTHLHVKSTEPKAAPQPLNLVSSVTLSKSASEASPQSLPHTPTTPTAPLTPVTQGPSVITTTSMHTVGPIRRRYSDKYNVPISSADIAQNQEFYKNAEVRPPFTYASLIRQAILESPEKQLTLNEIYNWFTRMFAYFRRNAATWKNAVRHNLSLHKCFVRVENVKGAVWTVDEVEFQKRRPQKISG
Description: PD-seq (MBP pull-down with sequencing); 20 mM Tris-HCl pH 7.5, 100 mM NaCl, 1.5 mM MgCl2, 0.4 uM protein, 0.1 uM dsDNA library, 30 min, room temperature, amylose pull-down; high values mean tight binding. Conditions: protein: recombinant; tags: His6-MBP; chain copies: 2; dsDNA, one strand shown. The method in brief: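 Binding is reads-per-million enrichment of pull-down over input, with replicates pooled. It comes from 30 min room-temperature incubation in Tris pH 7.5 buffer with NaCl and MgCl2 of 0.4 µM His6-MBP-tagged, N-terminally truncated mouse FoxP3 or FoxP1 fragment from E. coli with 0.1 µM Klenow-filled degenerate double-stranded DNA library, followed by amylose resin capture, three washes and Illumina sequencing of the released DNA.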
Take “GATGATTGTTCTCCCAGCTGATGAATTACACGAATCGAGTAAACAAATTTTCCTAATCTTTCTGTTCAAGCGCCATCTAC”: the binding signal is 1.2 RPM ratio (pull-down/input). With “GATGATTGTTCTCCCAGCTGATGAATTTCCAAGGTCGAGTAAACAAATTTTCCTAATCTTTCTGTTCAAGCGCCATCTAC”, the binding signal is 0.753 RPM ratio (pull-down/input). On to “GATGATTGTTCTCCCAGCTGATGAATTGCGCATTTCGAGTAAACAAATTTTCCTAATCTTTCTGTTCAAGCGCCATCTAC”, for which the binding signal was 1.43 RPM ratio (pull-down/input).

As for “GATGATTGTTCTCCCAGCTGATGAATTCCGGACTTCGAGTAAACAAATTTTCCTAATCTTTCTGTTCAAGCGCCATCTAC”, the binding signal is 0.729 RPM ratio (pull-down/input). For “GATGATTGTTCTCCCAGCTGATGAATTGGGCCAATCGAGTAAACAAATTTTCCTAATCTTTCTGTTCAAGCGCCATCTAC”, the binding signal is 0.962 RPM ratio (pull-down/input). In the case of “GATGATTGTTCTCCCAGCTGATGAATTCGTTAATTCGAGTAAACAAATTTTCCTAATCTTTCTGTTCAAGCGCCATCTAC” it was 0.967 RPM ratio (pull-down/input); in that of “GATGATTGTTCTCCCAGCTGATGAATTTCTATTGTCGAGTAAACAAATTTTCCTAATCTTTCTGTTCAAGCGCCATCTAC”, 1.91 RPM ratio (pull-down/input).

Turning to “GATGATTGTTCTCCCAGCTGATGAATTGCCGCTGTCGAGTAAACAAATTTTCCTAATCTTTCTGTTCAAGCGCCATCTAC”, the binding signal was 0.966 RPM ratio (pull-down/input).

In the case of “GATGATTGTTCTCCCAGCTGATGAATTAGACTGTTCGAGTAAACAAATTTTCCTAATCTTTCTGTTCAAGCGCCATCTAC”, the binding signal is 0.876 RPM ratio (pull-down/input).

As for “GATGATTGTTCTCCCAGCTGATGAATTAATGGCCTCGAGTAAACAAATTTTCCTAATCTTTCTGTTCAAGCGCCATCTAC”, the binding signal is 0.913 RPM ratio (pull-down/input).

Turning to “GATGATTGTTCTCCCAGCTGATGAATTCATCAATTCGAGTAAACAAATTTTCCTAATCTTTCTGTTCAAGCGCCATCTAC”, the binding signal was 0.956 RPM ratio (pull-down/input). Take “GATGATTGTTCTCCCAGCTGATGAATTCCTCCTTTCGAGTAAACAAATTTTCCTAATCTTTCTGTTCAAGCGCCATCTAC”: the binding signal was 0.796 RPM ratio (pull-down/input).

As for “GATGATTGTTCTCCCAGCTGATGAATTAGAGTAATCGAGTAAACAAATTTTCCTAATCTTTCTGTTCAAGCGCCATCTAC”, the binding signal is 1.45 RPM ratio (pull-down/input).

For “GATGATTGTTCTCCCAGCTGATGAATTTACGTCGTCGAGTAAACAAATTTTCCTAATCTTTCTGTTCAAGCGCCATCTAC”, the binding signal is 1.25 RPM ratio (pull-down/input). In the case of “GATGATTGTTCTCCCAGCTGATGAATTTCGCTTTTCGAGTAAACAAATTTTCCTAATCTTTCTGTTCAAGCGCCATCTAC” it was 0.933 RPM ratio (pull-down/input); in that of “GATGATTGTTCTCCCAGCTGATGAATTTAGATGCTCGAGTAAACAAATTTTCCTAATCTTTCTGTTCAAGCGCCATCTAC”, 1.78 RPM ratio (pull-down/input).

For the sequence “GATGATTGTTCTCCCAGCTGATGAATTTAAACGTTCGAGTAAACAAATTTTCCTAATCTTTCTGTTCAAGCGCCATCTAC”, the binding signal is 0.923 RPM ratio (pull-down/input). In the case of “GATGATTGTTCTCCCAGCTGATGAATTGATGCACTCGAGTAAACAAATTTTCCTAATCTTTCTGTTCAAGCGCCATCTAC” it was 1.72 RPM ratio (pull-down/input); in that of “GATGATTGTTCTCCCAGCTGATGAATTCAAACCATCGAGTAAACAAATTTTCCTAATCTTTCTGTTCAAGCGCCATCTAC”, 0.914 RPM ratio (pull-down/input). Take “GATGATTGTTCTCCCAGCTGATGAATTTAGCTGTTCGAGTAAACAAATTTTCCTAATCTTTCTGTTCAAGCGCCATCTAC”: the binding signal is 1.03 RPM ratio (pull-down/input).

“GATGATTGTTCTCCCAGCTGATGAATTCTAGATGTCGAGTAAACAAATTTTCCTAATCTTTCTGTTCAAGCGCCATCTAC”: the binding signal was 0.96 RPM ratio (pull-down/input). “GATGATTGTTCTCCCAGCTGATGAATTGTCTGTGTCGAGTAAACAAATTTTCCTAATCTTTCTGTTCAAGCGCCATCTAC”: the binding signal is 1.11 RPM ratio (pull-down/input). Turning to “GATGATTGTTCTCCCAGCTGATGAATTCAATGAGTCGAGTAAACAAATTTTCCTAATCTTTCTGTTCAAGCGCCATCTAC”, the binding signal was 0.91 RPM ratio (pull-down/input). Regarding “GATGATTGTTCTCCCAGCTGATGAATTAAACCCCTCGAGTAAACAAATTTTCCTAATCTTTCTGTTCAAGCGCCATCTAC”, the binding signal is 0.85 RPM ratio (pull-down/input). In the case of “GATGATTGTTCTCCCAGCTGATGAATTGGAGAAATCGAGTAAACAAATTTTCCTAATCTTTCTGTTCAAGCGCCATCTAC” it was 0.927 RPM ratio (pull-down/input); in that of “GATGATTGTTCTCCCAGCTGATGAATTGTTTGCATCGAGTAAACAAATTTTCCTAATCTTTCTGTTCAAGCGCCATCTAC”, 2.26 RPM ratio (pull-down/input); in that of “GATGATTGTTCTCCCAGCTGATGAATTGGCCCTCTCGAGTAAACAAATTTTCCTAATCTTTCTGTTCAAGCGCCATCTAC”, 0.852 RPM ratio (pull-down/input).

On to “GATGATTGTTCTCCCAGCTGATGAATTTTCAGGCTCGAGTAAACAAATTTTCCTAATCTTTCTGTTCAAGCGCCATCTAC”, for which the binding signal is 0.771 RPM ratio (pull-down/input). For the sequence “GATGATTGTTCTCCCAGCTGATGAATTACATTGATCGAGTAAACAAATTTTCCTAATCTTTCTGTTCAAGCGCCATCTAC”, the binding signal was 1.21 RPM ratio (pull-down/input). Consider “GATGATTGTTCTCCCAGCTGATGAATTCGGGTCGTCGAGTAAACAAATTTTCCTAATCTTTCTGTTCAAGCGCCATCTAC”, for which the binding signal is 0.781 RPM ratio (pull-down/input). With “GATGATTGTTCTCCCAGCTGATGAATTTTGGTCCTCGAGTAAACAAATTTTCCTAATCTTTCTGTTCAAGCGCCATCTAC”, the binding signal is 0.86 RPM ratio (pull-down/input). Take “GATGATTGTTCTCCCAGCTGATGAATTGGCGCGGTCGAGTAAACAAATTTTCCTAATCTTTCTGTTCAAGCGCCATCTAC”: the binding signal is 0.784 RPM ratio (pull-down/input). For “GATGATTGTTCTCCCAGCTGATGAATTAGTCATATCGAGTAAACAAATTTTCCTAATCTTTCTGTTCAAGCGCCATCTAC”, the binding signal is 1.07 RPM ratio (pull-down/input). Regarding “GATGATTGTTCTCCCAGCTGATGAATTTCAGAATTCGAGTAAACAAATTTTCCTAATCTTTCTGTTCAAGCGCCATCTAC”, the binding signal was 0.914 RPM ratio (pull-down/input).

Take “GATGATTGTTCTCCCAGCTGATGAATTGGCTATATCGAGTAAACAAATTTTCCTAATCTTTCTGTTCAAGCGCCATCTAC”: the binding signal was 0.923 RPM ratio (pull-down/input). Next, “GATGATTGTTCTCCCAGCTGATGAATTGATGTGGTCGAGTAAACAAATTTTCCTAATCTTTCTGTTCAAGCGCCATCTAC”: 1.14 RPM ratio (pull-down/input); “GATGATTGTTCTCCCAGCTGATGAATTCTACTTATCGAGTAAACAAATTTTCCTAATCTTTCTGTTCAAGCGCCATCTAC”: 0.921 RPM ratio (pull-down/input); “GATGATTGTTCTCCCAGCTGATGAATTAATGCAATCGAGTAAACAAATTTTCCTAATCTTTCTGTTCAAGCGCCATCTAC”: 1.55 RPM ratio (pull-down/input). In the case of “GATGATTGTTCTCCCAGCTGATGAATTGTCCCAATCGAGTAAACAAATTTTCCTAATCTTTCTGTTCAAGCGCCATCTAC” it was 1.11 RPM ratio (pull-down/input); in that of “GATGATTGTTCTCCCAGCTGATGAATTTACAGACTCGAGTAAACAAATTTTCCTAATCTTTCTGTTCAAGCGCCATCTAC”, 1.19 RPM ratio (pull-down/input).
